Source: PubChem BioAssay AID1347417 (National Center for Advancing Translational Sciences (NCATS), 2020)
About 5,300 (4.4%) of roughly 120,000 compounds were called active. Inconclusive results, whose numbers are uncertain, are shown with a selection of clear calls. Calls come from the whole dose curve; as a rule, active = well fitted inhibition curve with a large enough effect; inconclusive = small, poorly fitted or top-dose-only effect; inactive = no such curve, though single readings can be large or run the other way. Where the call is inconclusive, the potency comes from a doubtful curve fit.

Experiment: qHTS Primary assay for Inhibitors of Plasmodium falciparum Dd2 growth in vitro; note: nearly all actives have a fitted effect of over 65% in size
Details: P. falciparum Dd2 growth, SYBR Green, 72 h; series mostly up to 28.9 µM
Summary of the method: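 Readout: SYBR Green fluorescence, 485 nm excitation, 535 nm emission, after ~16 h lysis at 37C. Before that, Dd2-infected red cells (2.5% hematocrit) grew 72 h with compound, 29 uM top final concentration.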
Potency is the fitted concentration of half-maximal effect; tags give direction and shape of the fitted curve.

Row | SMILES | Potency
1 | CNc1nc(C(=O)N2CCC3(CCC(=O)N(CC4CCCO4)C3)CC2)cs1 (stereo unspecified) | inactive
2 | O=C(NCc1cccc(Cl)c1)c1cnc2c(c1)N(C(=O)Cc1ccc(O)cc1)CCC2 | inconclusive: 11.2 µM [inhibitor, partial curve, poor fit]
3 | Cc1cc(C2CC(C(=O)NCc3cccc(F)c3)CN(C(=O)C3CC3)C2)ccc1F (stereo unspecified) | inconclusive: 1.26 µM [inhibitor, partial curve]
4 | Cn1cc(CN[C@H]2C[C@H]3C(=O)NC[C@@H](CCC(=O)NCc4ccccc4)N3C2)c2ccccc21 | inconclusive: 7.08 µM [inhibitor, partial curve]
5 | N#Cc1cccc(C(=O)NC2CCN(c3cc(-c4ccc(F)cc4)[nH]n3)C2)c1 (stereo unspecified) | inactive
6 | COc1cc2c(cc1OCc1ccccc1)N(C(=O)c1cc3ccccc3n1C)CC21CCN(C)CC1 | inconclusive: 0.447 µM [inhibitor, full curve]
7 | O=C(c1ccccc1)N1C[C@@H]2C[C@H](C1)c1ccc(-c3ccc(Cl)cc3)c(=O)n1C2 | inconclusive: 31.6 µM [inhibitor, single point]
8 | O=C(Nc1ccc([C@H]2OCC(=O)N(C3CCOCC3)[C@@H]2CO)cc1)C1CCOCC1 | inactive
9 | O=c1n(Cc2ccccc2)nc2n1CCN(S(=O)(=O)c1cnc[nH]1)CC2 | inactive
10 | COc1ccc(-c2cc(N3CCCN(C(=O)c4ccsc4)CC3)n[nH]2)cc1 | inactive
11 | C#CCNC(=O)[C@@H]1Cc2cn(CC=C)c3cccc(c23)[C@H](CC(C)C)N1 | inconclusive: 12.6 µM [inhibitor, partial curve, poor fit]
12 | CCOc1cccc2sc(N(CCN(CC)CC)C(=O)c3ccco3)nc12 | inconclusive: 7.94 µM [inhibitor, partial curve, poor fit]
13 | COc1cccc(CNC(=O)c2ccc(NC(=O)N3CC(C)Sc4ccccc43)cc2)c1 (stereo unspecified) | inconclusive: 17.8 µM [inhibitor, single point]
14 | Cc1ccccc1Nc1c(-c2ccncc2)nc2ccc(Cl)cn12 | inconclusive: 14.1 µM [inhibitor, single point]
15 | O=C([C@H]1C[C@H](Oc2ccccc2)CN1C(=O)C1CCCC1)N1CCOCC1 | inactive
16 | CCOCCOC1CCN(C(=O)Cc2c[nH]c3ccccc23)CC1 | inactive
17 | COc1ccc(NC(=O)c2cccc3c2CCN3C(=O)Nc2ccc(F)cc2)c(C)c1 | inconclusive: 0.794 µM [inhibitor, full curve, poor fit]
18 | COCCOCC(=O)N1CCC(N2C(=O)C3(CCCCC3)C2c2ccccc2)CC1 (stereo unspecified) | inactive
19 | CCOc1ccccc1N(CC)C(=O)c1noc2c1COc1ccc(C)cc1-2 | inconclusive: 17.8 µM [inhibitor, single point]
20 | O=C(CCc1ccccc1)N1CCC(Oc2cnc3c(ccn3-c3cncnc3)c2)CC1 | inconclusive: 12.6 µM [inhibitor, partial curve]
21 | O=C(NC1CCCCC1)c1ccc2c(c1)N(Cc1ccc(Cl)cc1)C(=O)c1ccccc1S2=O (stereo unspecified) | inconclusive: 10 µM [inhibitor, single point]
22 | Cc1ccsc1C(=O)NC1CCCN(c2cc(-c3ccccc3)[nH]n2)C1 (stereo unspecified) | inconclusive: 3.98 µM [inhibitor, single point]

Row | SMILES | Potency
23 | COc1ccc(N(CC(=O)N2CCN(c3ccccc3F)CC2)S(=O)(=O)c2c(C)n[nH]c2C)cc1 | inconclusive: 10 µM [inhibitor, partial curve]
24 | COCCN1CCC(N2CCN(C(=O)CC3CCCC3)CC2)C1=O (stereo unspecified) | inactive
25 | CCN(C(=O)C1CCN(c2ncnc3c2nc2n3CCCCC2)CC1)c1cccc(Cl)c1 | inconclusive: 10 µM [inhibitor, single point]
26 | Cc1cccc(N2CCN(c3nc4ccc(C)cc4n4cnnc34)CC2C)c1 (stereo unspecified) | inconclusive: 8.91 µM [inhibitor, single point]
27 | CC(C)C(=O)N1Cc2ccccc2CC2(CCCN(Cc3ccccn3)C2)C1 (stereo unspecified) | inconclusive: 11.2 µM [inhibitor, partial curve, poor fit]
28 | CCC[C@H]1CN(C(=O)CCc2ccccc2C)C[C@@H]1N | inconclusive: 4.47 µM [inhibitor, partial curve, poor fit]
29 | Cc1nc(C)c(C(=O)N2CCC(Oc3ccc(-c4noc(-c5ccccc5)n4)cc3)C2)s1 (stereo unspecified) | inconclusive: 1.26 µM [inhibitor, single point]
30 | Cn1ccnc1CN1CCCC(c2ccc(C(=O)O)cc2)C1 (stereo unspecified) | inactive
31 | CCOC(=O)C1(Cc2cccc(C(F)(F)F)c2)CCN(Cc2cn(CC)nc2C)CC1 | inconclusive: 2.82 µM [inhibitor, partial curve, poor fit]
32 | COc1ccc(N2CCN(C(=O)c3cc(S(=O)(=O)N4CCC(C)CC4)cn3C)CC2)cc1 | inconclusive: 8.91 µM [inhibitor, partial curve]
33 | CCNC(=O)N1CC(Oc2cccc(-c3nc(-c4ccccc4)no3)c2)C1 | active: 1.26 µM
34 | CC(Oc1ccccc1)C(=O)N1CCC(Cc2nncn2C(C)C)CC1 (stereo unspecified) | inactive
35 | CS(=O)(=O)N1CCC(C2CCN(Cc3cccs3)C2)CC1 (stereo unspecified) | active: 12.6 µM
36 | O=C1NC(=NC2CCCCC2)C2(CCN(Cc3ccc(F)cc3)C2)N1c1cc(F)cc(F)c1 (stereo unspecified) | active: 1.78 µM
37 | O=C(Cc1ccccc1)Nc1ccnn1C1CCN(Cc2cccn2-c2ccccn2)CC1 | inconclusive: 10 µM [inhibitor, single point]
38 | O=C(c1ccccc1)N1CCC2(CC1)NC(=O)N(Cc1ccccc1)C2=O | inconclusive: 20 µM [inhibitor, single point]
39 | CCN1C(=O)CCN(Cc2cn(C)c3ccc(OC)cc23)CC12CCOCC2 | inconclusive: 3.98 µM [inhibitor, single point]
40 | Cc1ccccc1-c1noc(-c2ccc(NC(C)c3cnn(C)c3)nc2)n1 (stereo unspecified) | inconclusive: 10 µM [inhibitor, partial curve, poor fit]
41 | CCOc1ccccc1CNC(=O)c1c(C)sc2ccn(CC(C)C)c(=O)c12 | inactive
42 | COc1ccccc1NC(=O)c1sc2nc(C)c(C(=O)Nc3ccc(C)cc3C)c(-c3ccc(C)o3)c2c1N | active: 11.2 µM
43 | O=C(O)CC1C(=O)NCCN1C1Cc2ccccc2C1 (stereo unspecified) | inactive
44 | CCCS(=O)(=O)N1CCCC1c1noc(COc2ccc(C)cc2)n1 (stereo unspecified) | inconclusive: 4.47 µM [inhibitor, partial curve, poor fit]

Row | SMILES | Potency
45 | O=C1[C@@H]2C[C@@H](O)CN2C2(CN(Cc3ccccc3)C2)C(=O)N1Cc1ccccc1F | inconclusive: 11.2 µM [inhibitor, single point]
46 | CC(=O)N1CCN(c2nc3c(s2)CC(C(=O)Nc2cc(Cl)ccc2F)CC3)CC1 (stereo unspecified) | inconclusive: 1.41 µM [inhibitor, partial curve, poor fit]
47 | O=C(NC1CCN(c2cc(-c3ccc(Cl)cc3)[nH]n2)C1)c1ccc(Br)o1 (stereo unspecified) | active: 12.6 µM
48 | N#Cc1cccc(CN2CCOC[C@H]2c2ncc(-c3ccc(Cl)s3)[nH]2)c1 | inconclusive: 28.2 µM [inhibitor, single point]
49 | CN1CCC(C(=O)N2Cc3ccccc3CC3(CCCN(CC4CCOCC4)C3)C2)CC1 (stereo unspecified) | inconclusive: 8.91 µM [inhibitor, partial curve]
50 | COc1ccc(NC(=O)/C=C\C(=O)N(c2ccc(C(C)C)cc2)C(C(=O)NCc2ccco2)c2ccc(F)cc2)cc1 (stereo unspecified) | inconclusive: 17.8 µM [inhibitor, single point]
51 | COc1ccc(CN2CCC3(C2)C(=NC2CCCC2)NC(=O)N3c2cc(F)cc(F)c2)cc1 (stereo unspecified) | inconclusive: 3.16 µM [inhibitor, partial curve, poor fit]
52 | COCCN(C)C[C@H]1C[C@H](CO)CN(C(=O)c2cc(C)c(C)s2)C1 | inactive
53 | COC1CCC12CCN(Cc1ccccc1C#N)CC2 (stereo unspecified) | inactive
54 | COc1cccc(CN2C[C@@H](CO)[C@H](NC(=O)C3CC3)C2)c1OC | inactive
55 | O=C(Nc1ccc([C@@H](O)[C@H]2COCC(=O)N2CCCc2ccccc2)cc1)c1cnccn1 | active: 12.6 µM
56 | Cc1ccc(NC(=O)c2nc(S(C)(=O)=O)ncc2N(Cc2ccco2)Cc2ccco2)cc1C | inconclusive: 17.8 µM [inhibitor, single point]
57 | Cc1ccc(NC(=O)Cn2c(=O)oc3cc(S(=O)(=O)N4CCCCCC4)ccc32)cc1Cl | inactive
58 | COc1cccc([S+](=O)([O-])N2CCCC3(CC(Cc4ccccc4)=NO3)C2)c1 (stereo unspecified) | inactive
59 | Cc1ccc(F)c(CN2CCC3(CCNCC3)C2)c1Cl | inconclusive: 11.2 µM [inhibitor, partial curve]
60 | COc1ccc(Cl)cc1NC(=O)NCC1CCN(Cc2ccccc2F)CC1 | inconclusive: 15.8 µM [inhibitor, single point]
61 | COc1ccc(-n2c(=O)c3c4c(sc3n3c(SCCC(C)C)nnc23)COC(C(C)C)C4)cc1 (stereo unspecified) | inactive
62 | O=C(CCn1ccn2nc3c(c2c1=O)CCCC3)Nc1cccc(OC(F)(F)F)c1 | inconclusive: 6.31 µM [inhibitor, single point]
63 | CC(C)(Oc1ccc(Cl)cc1)C(=O)Nc1nc2ccc(S(C)(=O)=O)cc2s1 | inconclusive: 0.112 µM [inhibitor, partial curve, poor fit]
64 | Cc1ccc(NC(=O)CN2C(=O)C3(SCC(=O)N3c3ccc(F)c(F)c3)c3ccccc32)c(C)c1 (stereo unspecified) | active: 14.1 µM
65 | CN1CCN([C@H]2[C@@H]3OC[C@@H](O3)[C@@H](NC(=O)Nc3cccc(C#N)c3)[C@@H]2O)CC1 | inactive
66 | CCC(=O)N1CCc2cc(Br)cc(S(=O)(=O)CCC(=O)N(CC)Cc3ccccc3)c21 | inconclusive: 17.8 µM [inhibitor, single point]
